“And” between values parts separate entries of the source, which are not always exact repeats. Equal entries are not always repeated. The whole screen tested about 350,000 compounds, of which about 9,900 (2.8%) were called active. The inconclusive results got no clear call from the source; some entries with a clear call stand among them for comparison. The call rests on the fitted dose curve; in most records, active means well fitted activation curve with a large enough effect; inconclusive means small, poorly fitted or top-dose-only effect; inactive means no such curve, though single readings can be large or run the other way. Where the call is inconclusive, the potency comes from a doubtful curve fit.
Test: A quantitative high throughput screen for small molecules that induce DNA re-replication in MCF 10a normal breast cells. Further: nearly all actives have a fitted effect of over 50% in size.
Conditions: MCF 10A DNA re-replication, Hoechst nuclear intensity, 48 h; series mostly up to 46.1 µM
For C1COC(NC(C2CC2)C2CC2)=N1, the Potency was inconclusive: 33.5 µM [activator, single point] and inconclusive: 13 µM [activator, partial curve, poor fit].
For CN(C)c1ccc(C(=O)c2ccc(N(C)C)c(N)c2)cc1N, the Potency was inconclusive: 29.1 µM [activator, single point].
With Cn1nnnc1Sc1ncnc2scc(-c3ccc[nH]3)c12 the Potency was inconclusive: 8.2 µM [activator, partial curve, poor fit].
With Cc1cc(Cl)ccc1OCCCC(=O)NC1CCN(C)CC1 the Potency was inconclusive: 9.2 µM [activator, partial curve].
In the case of O=C(/C=C/c1ccco1)NCC1OCCc2ccccc21 (stereo not given), the Potency is reported as inconclusive: 32.6 µM [activator, single point].
In the case of Nc1nonc1-c1nc2ccccc2n1Cc1ccc(F)cc1, the Potency is reported as inconclusive: 29.1 µM [activator, single point].
In the case of Cc1csc(SCc2nc3sc4c(c3c(=O)[nH]2)CCC4)n1, the Potency is reported as “inactive”.
For O=C(N/N=C(\Cc1ncc[nH]1)c1ccccc1)c1ccncc1, the Potency was inconclusive: 23.1 µM [activator, single point].
For CC(C)CN1C(=O)c2ccc(NC(=O)c3ccco3)cc2C1=O, the Potency was “inactive”.
For CN(C)c1ccc(NC(=O)c2ccc3c(c2)nnn3C)cc1, the Potency was inconclusive: 20.6 µM [activator, single point].
For COc1ccc(-c2csc(NC(=O)C3CCCO3)n2)cc1 (stereo not given), the Potency was “inactive”.
With Cc1c(C(=O)Nc2cccnc2)oc2ccc(Br)cc12 the Potency was inconclusive: 29.1 µM [activator, single point].
With CCC1CCCCN1CCCNC(=O)CSc1nc2nc(C)c(Cc3ccccc3Cl)c(C)n2n1 (stereo not given) the Potency was “inactive”.
For Cc1ccn2c(NC3CCCCC3)c(-c3cccc(-c4cccc(Cl)c4)c3)nc2c1, the Potency was active: 20.6 µM.
In the case of CSc1ncc(C(=O)Nc2cccc(C)c2C)c(C)n1, the Potency is reported as “inactive”.
For CCS(=O)(=O)N1Cc2ccccc2CC1C(=O)OCC(=O)Nc1ccc(C)cc1 (stereo not given), the Potency was “inactive”.
With CCOC(=O)Cc1csc(NC(=O)CCc2ccccc2)n1 the Potency was “inactive”.
For O=C(Cc1cccc2ccccc12)N/N=C/c1ccc(OC(=O)/C=C/c2ccco2)cc1, the Potency was “inactive”.
For Cc1nn(CC(=O)NCCCc2ccccc2)c(=O)c2cc3occc3n12, the Potency was inconclusive: 1.3 µM [activator, full curve, poor fit].
For COc1ccc(CCn2c(N)c(C(=O)NCc3ccco3)c3nc4ccccc4nc32)cc1, the Potency was inconclusive: 1.3 µM [activator, full curve, poor fit].
With Cc1cc(C)n(-c2nc3c(c(=O)[nH]c(=O)n3C)n2CCc2ccccc2)n1 the Potency was inconclusive: 18.4 µM [activator, single point].
For Oc1cccc(Nc2c3ccccc3nc3ccccc23)c1, the Potency was inconclusive: 29.1 µM [activator, single point].
With Cc1cccc(N2CCN(S(=O)(=O)c3ccc4c(c3)NC(=O)C(C)S4)CC2)c1C (stereo not given) the Potency was “inactive”.
With C(C#CCCCCCCCCC[n+]1ccccc1)#CCCCCCCCCC[n+]1ccccc1 the Potency was inconclusive: 651 nM [activator, full curve, poor fit] and inconclusive: 23.1 µM [activator, partial curve, poor fit].
In the case of O=[N+]([O-])c1ccc2[nH]c(O)c(N=Nc3ccc(F)cc3)c2c1, the Potency is reported as inconclusive: 11.6 µM [activator, partial curve, poor fit].
For CN(C)c1ncccc1-c1nc2ccccc2s1, the Potency was inconclusive: 14.1 µM [activator, partial curve, poor fit].
In the case of CCN(C(=O)C=Cc1ccco1)c1ccccc1, the Potency is reported as inconclusive: 25.9 µM [activator, single point].
With CCCC1CCC(=NNS(=O)(=O)c2ccc(C)c([N+](=O)[O-])c2)CC1 (stereo not given) the Potency was inconclusive: 29.1 µM [activator, single point].
In the case of COCCCNC(=O)Cn1cc2c(n1)CCC(C)C2 (stereo not given), the Potency is reported as “inactive”.
For Cc1cc(NC(=O)CSc2nc(-c3ccccc3)cs2)no1, the Potency was inconclusive: 16.4 µM [activator, single point].
In the case of O=C(NCCCCNC(=O)c1cccs1)c1cccs1, the Potency is reported as “inactive”.
With CN1CCc2c(sc(NC(=O)c3ccc(S(=O)(=O)N4CCOCC4)cc3)c2C(N)=O)C1 the Potency was “inactive”.
For O=C(Nc1ccccc1)c1sc2cc(C(F)(F)F)cnc2c1-c1cccs1, the Potency was inconclusive: 20.6 µM [activator, single point].
In the case of Clc1cccc(N2CCN(CCCN3CCN(c4ccccc4)CC3)CC2)c1, the Potency is reported as inconclusive: 23.1 µM [activator, partial curve].
For [N-]=C=C1C(=O)NC(=O)C([n+]2ccc(-c3ccncc3)cc2)C1c1ccccc1C(F)(F)F (stereo not given), the Potency was inconclusive: 9.2 µM [activator, partial curve, poor fit].
In the case of O/N=C/c1ccccc1OCc1ccccc1F, the Potency is reported as inconclusive: 29.1 µM [activator, partial curve, poor fit].
For Cc1ccc(OCCn2cc(/C=C(\C#N)C(=O)NCC3CCCO3)c3ccccc32)cc1C (stereo not given), the Potency was inconclusive: 5.17 µM [activator, full curve].
For Cc1ccc(S(=O)(=O)Nc2ccc(Br)cc2C(NCC(=O)O)c2ccccc2)cc1 (stereo not given), the Potency was inconclusive: 20.6 µM [activator, single point].
With CC(C)OC(=O)CSc1nc2c(cc1C#N)CCCCC2 the Potency was “inactive”.
For CC12CC(c3ccccc3O1)N(C(=O)c1ccco1)C(=S)N2c1ccccc1 (stereo not given), the Potency was active: 23.1 µM.
With CCCCCCSc1ccc(-c2nc3ccc(Cl)cn3c2NCCCC)cc1OC the Potency was inconclusive: 16.4 µM [activator, single point].
For Cn1c(/C=C/c2ccc(Cl)cc2)c([N+](=O)[O-])c(=O)n(C)c1=O, the Potency was active: 7.31 µM.
For Cc1nc(N2CCCCC2)c2c(-c3cccs3)csc2n1, the Potency was active: 20.6 µM.
For Cc1ccc(-c2nnc(-c3ccc(Br)cc3)o2)o1, the Potency was inconclusive: 32.6 µM [activator, partial curve, poor fit].
For CNc1nc(-c2c(C)[nH]c3ccc(OC)cc23)cs1, the Potency was “inactive”.

From PubChem BioAssay AID624296 (National Center for Advancing Translational Sciences (NCATS), 2012)
Potency means the concentration at half of the fitted maximal effect; tags describe the fitted curve by direction and shape.
